# Screen size: about 410,000 compounds; about 310 (0.076%) were called active. This list was built around the results that the source calls inconclusive (neither active nor inactive); the mix of calls is not that of the screen. The call rests on the fitted dose curve; in most records, active means well fitted curve in the direction sought with a large enough effect; inconclusive means small, poorly fitted or top-dose-only effect; inactive means flat fitted curve, though single readings scatter. Potencies beside an inconclusive call are fits to weak or partial responses and may not hold up.
# Target: DNA dC->dU-editing enzyme APOBEC-3G (Homo sapiens) (UniProt Q9HC16)
# Sequence of UniProt Q9HC16 (Q9HC16 whole entry, looked up): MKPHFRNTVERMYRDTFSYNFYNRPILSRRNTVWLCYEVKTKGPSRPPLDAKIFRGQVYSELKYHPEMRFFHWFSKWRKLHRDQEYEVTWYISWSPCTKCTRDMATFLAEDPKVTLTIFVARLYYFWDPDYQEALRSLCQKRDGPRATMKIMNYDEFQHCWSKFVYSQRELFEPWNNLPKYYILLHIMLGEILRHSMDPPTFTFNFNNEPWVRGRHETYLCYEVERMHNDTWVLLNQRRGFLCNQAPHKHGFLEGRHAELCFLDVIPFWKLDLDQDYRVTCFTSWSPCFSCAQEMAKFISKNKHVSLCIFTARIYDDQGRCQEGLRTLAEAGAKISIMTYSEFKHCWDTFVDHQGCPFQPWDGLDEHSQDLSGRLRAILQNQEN
# Assay: qHTS for Inhibitors of Vif-A3G Interactions: qHTS; further: nearly all actives have a fitted effect of over 60% in size
# Conditions: HeLa A3G-eYFP + Vif (tagged APOBEC3G with the HIV-1 protein that degrades it), YFP fluorescence, overnight; series mostly up to 46.1 µM
# Procedure, shortened: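 HeLa cells stably expressing Vif and C-terminally eYFP-tagged A3G, seeded overnight at 37 deg C, then exposed to compound by pintool overnight at 37 deg C. Rise in yellow fluorescence (Ex 488/Em 500-530, Acumen) marks blocked Vif-driven A3G degradation.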
# Potency means the concentration at half of the fitted maximal effect; tags describe the fitted curve by direction and shape.
row,SMILES,Potency
1,Cc1cccc(N2NC(=O)/C(=C/c3ccc(-c4ccc(Cl)c(C(=O)O)c4)o3)C2=O)c1,inactive
2,COc1cc(C2Nc3ccc4ncccc4c3C3=C2C(=O)CCC3)ccc1O (configuration not stated),"inconclusive: 12.6 µM [inhibitor, partial curve, poor fit]"
3,CCOC(=O)c1[nH]c(C)c(C(=O)Nc2ccc(C)c(C)c2)c1C,"inconclusive: 11.2 µM [inhibitor, partial curve, poor fit]"
4,Cc1ccc(SC(CC(=O)c2ccc(C(C)(C)C)cc2)C(=O)O)cc1 (configuration not stated),"inconclusive: 35.5 µM [inhibitor, single point]"
5,O=c1nc(/C=C/c2ccccc2C(F)(F)F)cc(C(F)(F)F)[nH]1,inactive
6,Cc1cc(C)c(C(=O)/C=C/C=C/c2ccccc2)c(=O)[nH]1,inactive
7,COC(=O)C1=C(C(=O)OC)SC(=C2C(=S)C(C)(C)N(C(=O)C(C)C)c3ccccc32)S1,inactive
8,O=C(O)C1CCCCN1c1ccccc1[N+](=O)[O-] (configuration not stated),inactive
9,CC(=O)c1ccc(-c2cc(C3C4C=CCC(C)C4C(=O)N3Cc3ccccc3)ccc2F)cc1 (configuration not stated),inactive
10,CC(=O)c1ccc(NC(=O)CN2C(=O)/C(=C/C=C/c3ccccc3)SC2=S)cc1,inactive
11,COc1ccccc1-c1nnc(NC(=O)CCS(=O)(=O)c2ccc(F)cc2)o1,"inconclusive: 35.5 µM [inhibitor, single point]"
12,Cc1cc(Cl)cc(C)c1OCCCCn1ccnc1,inactive
13,O=C(NCc1cccc(C(F)(F)F)c1)c1cccc2c1C(=O)c1ccc(N3CCC(Cc4ccccc4)CC3)cc1S2(=O)=O,"inconclusive: 15.8 µM [inhibitor, single point]"
14,CN=C(NC(=O)Nc1c(C)cccc1C)NC(=O)Nc1c(C)cccc1C,inactive
15,Nc1sc2c(c1C(=O)NC1CCS(=O)(=O)C1)CCC2 (configuration not stated),inactive
16,NCc1csc(Nc2ccc(C(=O)c3ccccc3)cc2)n1,"inconclusive: 1.12 µM [inhibitor, full curve, poor fit]"
17,COc1ccccc1N1CCN(CC(=O)Nc2cc(C)nn2-c2nc(C)cc(C)n2)CC1,"inconclusive: 5.62 µM [inhibitor, partial curve, poor fit]"
18,CCCc1nc2c3ccccc3ccn2c1Cc1ccc(OC)cc1C,"inconclusive: 11.2 µM [inhibitor, single point]"
19,CCC12CN3CC(C)(CN(C1)C3c1c(C)[nH]c3ccccc13)C2=O (configuration not stated),inactive
20,COc1ccc2nc(C)cc(SCC(=O)N/N=C/c3ccc(O)c(O)c3)c2c1,"inconclusive: 35.5 µM [inhibitor, single point]"
21,Cc1cc(C(=O)N/N=C/c2cc(Cl)cc([N+](=O)[O-])c2O)c2ccccc2n1,"inconclusive: 20 µM [inhibitor, partial curve, poor fit]"
22,Cc1cccc(NC(=O)CN2CCN(C(=O)CNC(=O)c3ccc(-c4ccccc4)cc3)CC2)c1C,"inconclusive: 2.82 µM [inhibitor, full curve, poor fit]"
23,CCOC(=O)N1CCN(c2c(NCc3ccccc3Cl)c(=O)c2=O)CC1,"inconclusive: 17.8 µM [inhibitor, single point]"

row,SMILES,Potency
1,Cc1cccc(N2CCN(C(=O)c3ccc4ncsc4c3)CC2)c1C,"inconclusive: 2.51 µM [inhibitor, partial curve, poor fit]"
2,O=C1C=CC(=C(c2ccc(O)cc2)c2ccc(O)cc2)C=C1,"inconclusive: 11.2 µM [inhibitor, partial curve]"
3,O=[N+]([O-])c1ccc(N/N=C/c2sc(N3CCOCC3)nc2-c2ccccc2)c(S(=O)(=O)Nc2ccccc2Cl)c1,"inconclusive: 12.6 µM [inhibitor, partial curve, poor fit]"
4,Cc1ncc([N+](=O)[O-])n1CCOC(=O)Nc1ccc([N+](=O)[O-])cc1,inactive
5,Cc1ccc(C2NC(=O)c3ccccc3N2)c(C)c1 (configuration not stated),"inconclusive: 5.01 µM [inhibitor, partial curve]"
6,COc1ccc(CNC(=S)Nc2cc(C)ccc2C)cc1,inactive
7,COC(=O)c1c(NC(=O)c2ccc([N+](=O)[O-])o2)sc2c1CCN(C(C)C)C2,"inconclusive: 28.2 µM [inhibitor, single point]"
8,CN(C)CCN(C)Cc1ccccc1Sc1cccc2ccccc12,"inconclusive: 35.5 µM [inhibitor, single point]"
9,CN(C)C(=O)c1ccc(SC(=S)NCc2ccccc2)cc1,"inconclusive: 35.5 µM [inhibitor, single point]"
10,CCc1cc(C(=O)N2CCN(c3ccccc3OC)CC2)sc1C,"inconclusive: 35.5 µM [inhibitor, single point]"
11,CN(C)N=Nc1ccc(/C=C2\C=Cc3ccccc32)cc1,inactive
12,COc1cc(-n2c(C)nc3cc(C(=O)N4CCOCC4)ccc32)cc(OC)c1OC,inactive
13,Cc1cc(Sc2nnc(N)s2)c2ccccc2n1,"inconclusive: 22.4 µM [inhibitor, single point]"
14,O=C1OC(/C(=C\Nc2cc(Cl)ccc2O)[N+](=O)[O-])c2ccccc21 (configuration not stated),"inconclusive: 15.8 µM [inhibitor, partial curve, poor fit]"
15,O=C(Nc1ccc(N2CCCCC2)cc1)c1ccc(F)cc1F,inactive
16,O=[N+]([O-])c1ccc2c3n([n+]([O-])c2c1)CCN=C3c1ccc(Cl)cc1,"inconclusive: 11.2 µM [inhibitor, single point]"
17,COc1ccc(NC(=O)c2cc(-c3ccccc3OC)on2)cc1,"inconclusive: 1.78 µM [inhibitor, full curve, poor fit]"
18,CCN1/C(=C/c2ccc3cc(C)ccc3[n+]2CC)Sc2cc(C)c(C)cc21,"inconclusive: 3.55 µM [inhibitor, partial curve, poor fit]"
19,O=C1Cc2cc(S(=O)(=O)N3CCN(c4ccccc4)CC3)ccc2N1,"inconclusive: 20 µM [inhibitor, single point]"
20,COC(=O)c1ccc(COc2ccc(/C=C(\C#N)c3nc4ccccc4[nH]3)cc2OC)o1,"inconclusive: 15.8 µM [inhibitor, single point]"
21,N#C/C(=C(/O)C(Cl)c1ccccc1)c1nc2ccccc2s1 (configuration not stated),"inconclusive: 22.4 µM [inhibitor, single point]"
22,CC(C)C(=O)N1CCN(c2ccc(NC(=O)c3ccc([N+](=O)[O-])o3)cc2Cl)CC1,"inconclusive: 3.16 µM [inhibitor, single point]"
23,Cc1cc(C)cc(N=Cc2[nH]c3ccc(Br)c(Cl)c3c2O)c1,"inconclusive: 22.4 µM [inhibitor, partial curve, poor fit]"

row,SMILES,Potency
1,CC(=O)c1c(-c2ccccc2)[nH]c2ccccc12,"inconclusive: 10 µM [inhibitor, partial curve, poor fit]"
2,CCOC(=O)C1CCCN(C(=O)Cn2ncc3c([nH]c4ccccc43)c2=O)C1 (configuration not stated),inactive
3,CC(/C=C/c1ccc(O)cc1)=NNc1ccccc1,"inconclusive: 15.8 µM [inhibitor, single point]"
4,CN(C)C(=O)/C(C#N)=C\c1cc(Br)c(Sc2ccc(Cl)cc2)o1,inactive
5,CN1CCN(C2Cc3ccc(Cl)cc3Sc3ccc(F)cc32)CC1 (configuration not stated),"inconclusive: 35.5 µM [inhibitor, single point]"
6,O=C(CSCC(=O)Nc1cccc2ccccc12)Nc1cccc2ccccc12,"inconclusive: 3.16 µM [inhibitor, full curve]"
7,S=c1[nH]nc(COc2ccccc2)n1/N=C/c1ccccn1,inactive
8,NNC(=O)c1[nH]c2ccc([N+](=O)[O-])cc2c1-c1ccccc1,"inconclusive: 3.55 µM [inhibitor, full curve, poor fit]"
9,COc1cc(N2C(=O)C=CC2=O)c(OC)cc1Cl,"inconclusive: 22.4 µM [inhibitor, single point]"
10,COc1ccc(OC)c(NC2=C(c3ccccc3)C(=O)c3ccccc32)c1,"inconclusive: 1.12 µM [inhibitor, full curve, poor fit]"
11,COC(=O)c1ccc(Cl)cc1NC(=O)N1CC=C(c2c[nH]c3ccccc23)CC1,"inconclusive: 22.4 µM [inhibitor, single point]"
12,COc1ccc(/C=N/Nc2nnc(-c3ccccc3)c(=O)[nH]2)cc1,"inconclusive: 5.01 µM [inhibitor, partial curve]"
13,OC[C@@H]1[C@@H](c2ccc(Cl)cc2)C(c2cccc(Cl)c2)=NN1c1ccccc1,"inconclusive: 35.5 µM [inhibitor, single point]"
14,COc1ccc(-c2cc(C(F)(F)F)c(C#N)c(SCC(=O)Nc3ccccc3C#N)n2)cc1,inactive
15,COc1ccc(NC(=O)COC(=O)c2cccn2C)cc1S(=O)(=O)N1CCCCC1,inactive
16,Cc1ccc(O)c(NC(=S)NC(=O)/C=C/c2ccco2)c1,"inconclusive: 4.47 µM [inhibitor, full curve]"
17,COc1ccc(NC(=O)c2ccc(-c3ccc(C)c4ccccc34)o2)cc1,inactive
18,COC(=O)c1sccc1NS(=O)(=O)c1ccc(OC)cc1,"inconclusive: 10 µM [inhibitor, partial curve]"
19,Cc1cccc(N2CCN(C(=O)c3c(-c4ccccc4)noc3C)CC2)c1C,"inconclusive: 1.26 µM [inhibitor, full curve, poor fit]"
20,O=C(NCc1ccco1)C1CC(c2ccc(C(F)(F)F)cc2)=NO1 (configuration not stated),"inconclusive: 5.62 µM [inhibitor, partial curve, poor fit]"
21,CCOc1cc(S(=O)(=O)NCc2ccc(OC)cc2)c(OCC)cc1-n1cnnn1,"inconclusive: 11.2 µM [inhibitor, partial curve]"
